In article PMC4513104 one finds binding data, which are given here for six molecules.

The chains behind the UniProt entries cited, without tags or fusion partners.
UniProt Q01469: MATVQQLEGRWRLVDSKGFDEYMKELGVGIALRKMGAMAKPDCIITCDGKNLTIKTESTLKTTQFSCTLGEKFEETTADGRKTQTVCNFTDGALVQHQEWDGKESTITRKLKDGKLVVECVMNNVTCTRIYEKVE
UniProt P05413: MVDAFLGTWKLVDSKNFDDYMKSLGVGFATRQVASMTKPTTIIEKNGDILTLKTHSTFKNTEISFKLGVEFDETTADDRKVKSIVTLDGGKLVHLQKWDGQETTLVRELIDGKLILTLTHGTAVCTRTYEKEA
UniProt Q9DBL9: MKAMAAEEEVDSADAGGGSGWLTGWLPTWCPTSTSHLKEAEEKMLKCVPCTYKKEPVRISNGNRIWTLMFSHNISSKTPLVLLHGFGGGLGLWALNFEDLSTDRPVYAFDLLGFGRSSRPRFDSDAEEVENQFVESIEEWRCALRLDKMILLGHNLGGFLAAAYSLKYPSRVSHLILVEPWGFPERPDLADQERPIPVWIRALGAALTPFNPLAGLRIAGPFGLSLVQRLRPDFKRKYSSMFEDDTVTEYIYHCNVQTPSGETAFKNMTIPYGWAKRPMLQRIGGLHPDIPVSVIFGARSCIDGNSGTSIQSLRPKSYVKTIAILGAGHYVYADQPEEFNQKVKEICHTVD

Assay [1] addresses Strep-tagged A-Fabp (human) (UniProt P15090). In words: ELISA; solid phase assay: 96-well polystyrene plates coated overnight with 3 μg of purified Fabp, blocked with 5% delipidated BSA in TBS (50 mM Tris, pH 8.0, 150 mM NaCl); COS-7 cell extracts (10–60 μg of total protein) with His-tagged proteins, 2% BSA, 0.05% Tween 20, overnight; anti-His primary and Hrp-conjugated secondary antibody, absorbance 450/620 nm; only the target purified. In general terms: An ELISA detects its analyte on a solid surface through an enzyme-linked reagent.

Assay [2] deals with E-Fabp (human) (UniProt Q01469). Described as above.
The target of assay [3] is H-Fabp (human) (UniProt P05413). Described as above.
For assay [4], the target named is T1, I-Fabp (human) (UniProt P12104).
T1 sequence: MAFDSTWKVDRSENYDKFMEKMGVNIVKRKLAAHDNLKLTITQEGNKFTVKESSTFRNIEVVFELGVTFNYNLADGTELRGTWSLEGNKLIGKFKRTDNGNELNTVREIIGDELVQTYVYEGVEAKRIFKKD
Described as above.

The target of assay [5] is T2, L-Fabp (human) (UniProt P07148).
T2 sequence: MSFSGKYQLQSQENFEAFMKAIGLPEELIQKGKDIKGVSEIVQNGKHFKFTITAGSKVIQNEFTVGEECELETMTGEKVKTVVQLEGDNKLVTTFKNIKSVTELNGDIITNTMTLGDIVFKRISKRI
The assay is described as above.

In assay [6] the target is Cgi-58 (endogenous, murine WAT) (mouse (endogenous in gonadal WAT)) (UniProt Q9DBL9). The assay can be described thus: co-IP; endogenous proteins in gonadal WAT lysate of an overnight fasted C57BL/6 mouse (700 μg of total protein; 50 mM Tris, pH 7.4, 150 mM NaCl, 1% Nonidet P-40, 1 mM EDTA); monoclonal antibodies against A-Fabp, Cgi-58 or Gfp (control), protein A/G-Sepharose, Western blotting.

Results are given in words; binding and its absence hold for the method and conditions named. For some of these results: Binding seen in cells or lysates may run through a third protein. Some binding calls cover weakened binding; strength is not graded here. For some of these results: Tags and fused reporters may be left off the sequences shown.

B1: His-tagged murine Atgl (enzyme, UniProt Q8BJ56 1-486)
chain: MFPRETKWNISFAGCGFLGVYHIGVASCLREHAPFLVANATHIYGASAGALTATALVTGACLGEAGANIIEVSKEARKRFLGPLHPSFNLVKTIRGCLLKTLPADCHERANGRLGISLTRVSDGENVIISHFSSKDELIQANVCSTFIPVYCGLIPPTLQGVRYVDGGISDNLPLYELKNTITVSPFSGESDICPQDSSTNIHELRVTNTSIQFNLRNLYRLSKALFPPEPMVLREMCKQGYRDGLRFLRRNGLLNQPNPLLALPPVVPQEEDAEEAAVVEERAGEEDQLQPYRKDRILEHLPARLNEALLEACVEPKDLMTTLSNMLPVRLATAMMVPYTLPLESAVSFTIRLLEWLPDVPEDIRWMKEQTGSICQYLVMRAKRKLGDHLPSRLSEQVELRRAQSLPSVPLSCATYSEALPNWVRNNLSLGDALAKWEECQRQLLLGLFCTNVAFPPDALRMRAPASPTAADPATPQDPPGLPPC
Consider B1, for which the binding entry in assay [1] is “no binding (tested: cell extracts, 10–60 μg of total protein)”.

B2: Cgi-58^190TER (domain or fragment, UniProt Q8WTS1 1-189)
chain: MAAEEEEVDSADTGERSGWLTGWLPTWCPTSISHLKEAEEKMLKCVPCTYKKEPVRISNGNKIWTLKFSHNISNKTPLVLLHGFGGGLGLWALNFGDLCTNRPVYAFDLLGFGRSSRPRFDSDAEEVENQFVESIEEWRCALGLDKMILLGHNLGGFLAAAYSLKYPSRVNHLILVEPWGFPERPDLAD
Regarding B2, in assay [1], the binding result is reported as “binds weakly”.

B3: His-tagged human Cgi-58 (protein, UniProt Q8WTS1 1-349)
chain: MAAEEEEVDSADTGERSGWLTGWLPTWCPTSISHLKEAEEKMLKCVPCTYKKEPVRISNGNKIWTLKFSHNISNKTPLVLLHGFGGGLGLWALNFGDLCTNRPVYAFDLLGFGRSSRPRFDSDAEEVENQFVESIEEWRCALGLDKMILLGHNLGGFLAAAYSLKYPSRVNHLILVEPWGFPERPDLADQDRPIPVWIRALGAALTPFNPLAGLRIAGPFGLSLVQRLRPDFKRKYSSMFEDDTVTEYIYHCNVQTPSGETAFKNMTIPYGWAKRPMLQRIGKMHPDIPVSVIFGARSCIDGNSGTSIQSLRPHSYVKTIAILGAGHYVYADQPEEFNQKVKEICDTVD
Turning to B3, the binding result in assay [2], in assay [3], in assay [4], in assay [5] and in assay [1] was “binds” each time.

B4: Cgi-58^E7K (protein, UniProt Q8WTS1 1-349)
chain: MAAEEEKVDSADTGERSGWLTGWLPTWCPTSISHLKEAEEKMLKCVPCTYKKEPVRISNGNKIWTLKFSHNISNKTPLVLLHGFGGGLGLWALNFGDLCTNRPVYAFDLLGFGRSSRPRFDSDAEEVENQFVESIEEWRCALGLDKMILLGHNLGGFLAAAYSLKYPSRVNHLILVEPWGFPERPDLADQDRPIPVWIRALGAALTPFNPLAGLRIAGPFGLSLVQRLRPDFKRKYSSMFEDDTVTEYIYHCNVQTPSGETAFKNMTIPYGWAKRPMLQRIGKMHPDIPVSVIFGARSCIDGNSGTSIQSLRPHSYVKTIAILGAGHYVYADQPEEFNQKVKEICDTVD
With B4, the binding entry in assay [1] is recorded as “binds”.

B5: His-tagged murine Hsl (enzyme, UniProt P54310 1-759)
chain: MDLRTMTQSLVTLAEDNMAFFSSQGPGETARRLSNVFAGVREQALGLEPTLGQLLGVAHHFDLDTETPANGYRSLVHTARCCLAHLLHKSRYVASNRKSIFFRASHNLAELEAYLAALTQLRAMAYYAQRLLTINRPGVLFFEGDEGLTADFLQEYVTLHKGCFYGRCLGFQFTPAIRPFLQTLSIGLVSFGEHYKRNETGLSVTASSLFTGGRFAIDPELRGAEFERIIQNLDVHFWKAFWNITEIEVLSSLANMASTTVRVSRLLSLPPEAFEMPLTSDPRLTVTISPPLAHTGPAPVLARLISYDLREGQDSKVLNSLAKSEGPRLELRPRPHQAPRSRALVVHIHGGGFVAQTSKSHEPYLKNWAQELGVPIFSIDYSLAPEAPFPRALEECFFAYCWAVKHCDLLGSTGERICLAGDSAGGNLCITVSLRAAAYGVRVPDGIMAAYPVTTLQSSASPSRLLSLMDPLLPLSVLSKCVSAYSGTEAEDHFDSDQKALGVMGLVQRDTSLFLRDLRLGASSWLNSFLELSGRKPQKTTSPTAESVRPTESMRRSVSEAALAQPEGLLGTDTLKKLTIKDLSNSEPSDSPEMSQSMETLGPSTPSDVNFFLRPGNSQEEAEAKDEVRPMDGVPRVRAAFPEGFHPRRSSQGVLHMPLYTSPIVKNPFMSPLLAPDSMLKTLPPVHLVACALDPMLDDSVMFARRLRDLGQPVTLKVVEDLPHGFLSLAALCRETRQATEFCVQRIRLILTPPAAPLN
Regarding B5, in assay [1], the binding result is on record as “binds”.

B6: Fatty acid-binding protein, adipocyte (protein, UniProt P04117 1-132)
chain: MCDAFVGTWKLVSSENFDDYMKEVGVGFATRKVAGMAKPNMIISVNGDLVTIRSESTFKNTEISFKLGVEFDEITADDRKVKSIITLDGGALVQVQKWDGKSTTIKRKRDGDKLVVECVMKGVTSTRVYERA
As to B6, the binding entry in assay [6] is on record as “binds”.
